Data set [1] deals with peripheral blood cells. The experiment in a line: Complete blood count in rats 48 hours after IV or PO dexamethasone. As for the experimental part:
FIG. 7. […] Data in FIGS. 3, 4, and 6 are from the same rats. […] Oral (left) and IV (right) doses were administered 1×48 hours before blood withdrawal.

Data set [2] concerns peripheral blood cells. The experiment in a line: Flow cytometry and complete blood count in male mice after oral dexamethasone. The text has this: FIG. 9. […] Treg lymphocytes were identified by being CD3+CD4+CD25+FoxP3+.
FIG. 12. […] Cells/ul=absolute numbers obtained from CBC.
On the technique in general: A flow cytometer gives signals particle by particle.

Setting [3] is: male mice, 12 mg/kg HED group vs control, 24-48 hours.

As to `C[C@@H]1C[C@H]2[C@@H]3CCC4=CC(=O)C=C[C@]4(C)[C@@]3(F)[C@@H](O)C[C@]2(C)[C@@]1(O)C(=O)CO` [dexamethasone], in data set [1], the “RBCs, platelets, Hct, HgB” value is listed as “not affected”. The “reduction of absolute lymphocyte count” value in data set [2] (C57B1 male mice, vs placebo, 24-48 hours) is recorded as 84%. Moreover, in data set [2] (setting [3]), the “reduction in B cells” value is given as 83%, the “reduction in CD3+ cells” value is given as 65%, the “reduction in CD4+ cells” value turned out to be 75% and the “reduction in CD8+ cells” value came to 56%. In addition, in data set [2] (setting [3]), the “reduction in NK cells” value is 87% and the “reduction in Tregs” value came to 78%. Moreover, the lymphoablation result in data set [2] (normal mice, HED doses greater than 12 mg/kg) was “almost complete lymphoabalation”.

The record behind these values is patent publication US11446314B2, “Immunoablative therapies” (AVM Biotechnology LLC, priority 2018, dated 2022).
